This is one part of the list.
What follows are molecules tested on T1, C. trachomatis L2/434/Bu expressing GFP (CTL2-GFP). Settings: total inclusion area; 28.5 h, 10 µM; inhibitor.
T1 construct: L2/434/Bu GFP intracellular growth in HeLa cells
Design: species or system HeLa; C. trachomatis total inclusion area by high-content imaging, normalised to DMSO
Method in brief: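 High-content images of fixed, Hoechst-stained infected cultures supply inclusion area and count (growth) plus nuclei number (viability), complementing bulk GFP/resorufin fluorescence. MIC determination is unchanged from the primary assay.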

Compound | % of control remaining
COc1ccc(Cc2n[nH]c(=O)n2-c2ccccc2)cc1 [CBK000112] | 145.175
O=C(NCCO)c1cccc(-c2cncc(N3CCN(Cc4ccccn4)CC3)n2)c1 [CBK065784] | 107.381
COc1cc(F)cc(OC2CCNCC2)c1NC(=O)C1=CC(=O)CC(C)(C)O1 [CBK050352T] | 96.6274
CC(C)(C)C1CCC(OCC(O)CN2CCN(CCO)CC2)CC1 (stereo not drawn) [CBK278263C] | 83.8329
CCN1CC2(CCN(Cc3c(F)cccc3F)CC2)c2ccccc21 [CBK136986] | 96.035
CCN1CC2(CCN(Cc3cc(OC)c(OC)c(OC)c3)CC2)c2ccccc21 [CBK131477] | 61.837
CC1CN(CCC(=O)O)Cc2cc(Cl)ccc2O1 (stereo not drawn) [CBK286899] | 58.9742
O=C1CNC(=O)C2(C/C=C/C[C@H]3COCC[C@H]3N1)CCN(C(=O)c1ccc(=O)[nH]n1)CC2 [CBK292161] | 102.222
CC(=O)N1CCN(c2ncnc3c2nnn3-c2ccccc2)CC1 [CBK287753] | 105.995
COc1ccc(CCNC(=O)Cn2ccc(C3CCCNC3)n2)cc1 (stereo not drawn) [CBK304444] | 94.5472
COc1ccc(CCN2C(=O)CC(Nc3ccc(N4CCOCC4)cc3)C2=O)cc1OC (stereo not drawn) [CBK266322] | 143.421
CCCc1ccc(S(=O)(=O)Nc2ccccc2C(=O)O)cc1 [CBK042366] | 105.964
O=C(O)CSc1ncnc2ccccc12 [CBK262069] | 98.1722
c1ccc2c(c1)nc1n2CN(Cc2ccc3c(c2)OCO3)CN1 [CBK268087] | 81.3068
O=C(NCCCc1ccccn1)c1ccnc2ccc(Cl)cc12 [CBK282618] | 104.251
Nc1ccccc1NC(=O)NC(=O)c1ccccc1 [CBK022767] | 63.093
OCc1nc2ccccc2n1CCCCOc1ccccc1Cl [CBK270117] | 67.4141
Cc1ccc(S(=O)(=O)Nc2c(C(=O)O)sc3ncccc23)cc1[N+](=O)[O-] [CBK049983] | 103.663
O=C(NCc1nc2ccccc2[nH]1)c1ccc2[nH]ccc2c1 [CBK149079] | 88.8498
O=C(O)COc1ccc(N2C(=O)c3ccc(-c4nc5ccccc5c(=O)o4)cc3C2=O)cc1 [CBK265659] | 92.855
CCOC(=O)Cn1nc(C)n2c(cc3sc(C)cc32)c1=O [CBK284096] | 80.4859

Compound | % of control remaining
C=CCn1c2ccccc2c2nnc(SCC(=O)N3c4ccccc4Sc4ccccc43)nc21 [CBK263237] | 52.8976
O=C(c1cccnc1)N1C[C@@H]2OCC(=O)N(Cc3ccc(F)cc3)[C@@H]2C1 [CBK289691] | 123.969
O=C(CN1C(=O)c2ccccc2C1=O)Nc1sc2c(c1C(=O)NCC1CCCO1)CCC2 (stereo not drawn) [CBK265583] | 91.6338
O=C(O)C1CCCN(C(=O)NCC2COc3ccccc3O2)C1 (stereo not drawn) [CBK161342] | 93.7078
O=C(Cc1ccc(F)cc1)N1CCC(O)(c2ccccn2)CC1 [CBK283588] | 88.5198
CCN(CCO)C(=O)C(C)Oc1cc(C)ccc1Cl (stereo not drawn) [CBK306019] | 13.9106
CC(CN(C)C(=O)CC1CCN(C(=O)CC2CCCCC2)CC1)c1ccccc1 (stereo not drawn) [CBK286268] | 109.645
Cn1nccc1-c1cc(C(=O)NC2(C)CCC2)c2ccccc2n1 [CBK281605] | 118.051
COc1ccc(C(=O)Nc2nnc(-c3ccccc3OC)o2)cc1OC [CBK287589] | 93.7638
COc1ccc([C@@]23CCC(CC(=O)O)C[C@@H]2N(C)CC3)cc1OC (stereo partly drawn) [CBK045765A] | 89.9198
COc1ccc(-c2cnc(N)c(NCc3cccnc3)n2)c(OC)c1OC [CBK063540] | 125.694
O=S(=O)(c1ccc(Br)cc1)N1CCCCC1CO (stereo not drawn) [CBK051127] | 79.2803
O=C(NC[C@H]1O[C@@H](CC(=O)N2CCCC2)[C@H](O)[C@@H]1O)c1cccc(F)c1 [CBK288908] | 109.022
O=S(=O)(NCc1nc2ccccc2[nH]1)c1ccccc1 [CBK269460] | 102.308
Cc1ccc(C(=O)O)cc1NC(=S)NC1CC1 [CBK288397] | 82.8899
C=CCNC(=O)C[C@@H]1CCN(C(=O)c2ccnc(Cl)c2)C[C@@H]1CC [CBK289136] | 74.4545
Cc1nn(C)c(C)c1NC(=O)c1ccc(S(=O)(=O)N(C)C)cc1 [CBK266059] | 95.8437
C/C(=N/OCC(=O)Nc1oc(-c2ccccc2)c(-c2ccccc2)c1C#N)c1cccs1 [CBK262932] | 80.2675
Oc1cc2nnnn2nc1-c1ccccc1 [CBK019550] | 54.7511
COc1ccc2[nH]c3c(c2c1)CCN(C(C)=O)C31CCN(CCOc2ccccc2)C1 (stereo not drawn) [CBK039626] | 78.625
CSc1ncc(CNC(=O)C2CCOc3ccccc3C2)n1C (stereo not drawn) [CBK307611] | 91.4686

Compound | % of control remaining
CCN1C(=O)COC[C@@H]1[C@H](O)c1ccc(NC(=O)Cc2ccc(OC)cc2)cc1 [CBK289676] | 115.712
CN(C)S(=O)(=O)c1ccc(Cl)c(C(=O)Nc2cccc(C(=O)O)c2)c1 [CBK265727] | 122.111
c1ccc(CCN2CCN(CCC(c3ccccc3)c3ccccc3)CC2)cc1 [CBK126432] | 78.6388
N#Cc1ccccc1-c1ccc(CSc2cccc(F)c2)cc1 [CBK002920] | 79.9048
c1cc(CCCOc2cncc(N3CCCC3)n2)ccn1 [CBK115760] | 113.498
O=C(NCc1nnc(-c2cccs2)o1)C1(c2ccc(F)cc2)CC1 [CBK284638] | 99.3997
O=C(O)CCC(=O)Nc1ccc(Br)cc1C(=O)c1ccc(Cl)cc1 [CBK262601] | 93.4715
COc1ccc(C(C)C)cc1-c1cnc(N)c(NCc2ccncc2)n1 [CBK063695] | 133.275
CCOC(=O)c1cnc(N2CCOCC2)nc1NCCc1c[nH]c2ccccc12 [CBK093605] | 100.337
O=S(=O)(c1ccc(Cl)cc1)N1CCN(S(=O)(=O)N2CCOCC2)CC1 [CBK266878] | 105.085
CC(=O)c1ccc(-c2nc(-c3occc3C=O)cnc2N)cc1 [CBK064081] | 106.005
CCn1ncc(CN(CCN(C)C)Cc2cccs2)c1C [CBK282958] | 88.7983
O=C(c1ccc(F)cc1)N1C2CCC1CC(O)(c1ccccc1F)C2 (stereo not drawn) [CBK121719] | 86.2013
CC(C)Oc1cccc2cccc(C(O)CN(C)C)c12 (stereo not drawn) [CBK009892] | 108.653
O=C(CN1C(=O)N2CCCN=C2c2ccc(Cl)cc21)NC1CC1 [CBK284388] | 86.4539
CC(=O)c1ccc(NC(=O)CSc2ncccc2C(=O)O)cc1 [CBK299798] | 109.343
COc1ccc(NC(=O)CSc2nc(N)cc(O)n2)c([N+](=O)[O-])c1 [CBK267904] | 72.9155
COc1cc(C(CC(=O)O)C(=O)O)c([N+](=O)[O-])cc1OC (stereo not drawn) [CBK268541] | 107.811
O=C(Nc1ccc(I)cc1)c1ccc(CN2CCc3ccccc3C2)cc1 [CBK262672] | 111.541
O=C(O)CC(NC(=O)c1ccco1)c1ccc(F)cc1 (stereo not drawn) [CBK057988] | 97.4106
CCCc1cc(C(=O)N2CCCN(Cc3cnn(CC)c3)CC2)[nH]n1 [CBK305293] | 96.8359

Compound | % of control remaining
Cc1cc(I)ccc1NCC(=O)NN [CBK261738] | 98.1744
O=S(=O)(c1ccc(OC(F)(F)F)cc1)N1CCCCC1CO (stereo not drawn) [CBK051527] | 89.5807
COCCCN1C(=O)C(O)=C(C(=O)c2ccc(Cl)cc2)C1c1cccc(O)c1 (stereo not drawn) [CBK264892] | 113.191
CCn1cc(CN2CCCN(C(=O)c3cc(C4CC4)on3)CC2)cn1 [CBK305401] | 52.2599
Cc1cc(NS(=O)(=O)c2cc(OCC(N)=O)c(C)cc2Cl)no1 [CBK266456] | 119.685
CCN1CCN(c2ccc(NC(=O)Cc3cn4ccsc4n3)cc2)CC1 [CBK305892] | 38.3956
CC(=O)Nc1ccccc1NC(=O)c1ccccc1CCc1ccccc1 [CBK268621] | 104.672
CC(C)N1CCOC[C@H]1c1nc(-c2ccc(S(C)(=O)=O)cc2)c[nH]1 [CBK289301] | 91.3453
Cn1nccc1NS(=O)(=O)c1cc(C(F)(F)F)cc(C(F)(F)F)c1 [CBK062090] | 97.8084
Cc1nc(C2CCCN(C(=O)C3CCCO3)C2)c2sccn12 (stereo not drawn) [CBK282241] | 93.509
CN(Cc1nc2c(s1)CCCC2)C(=O)COc1ncnc2ccccc12 [CBK307151] | 37.0216
COc1cc(/N=C(\N)Nc2nc(=O)cc(CSc3ccc(C)cc3)[nH]2)cc(OC)c1 [CBK265532] | 109.835
O=S(=O)(NC1c2cccc3cccc(c23)C1N1CCNCC1)c1ccc(Cl)cc1 (stereo not drawn) [CBK264082] | 92.0612
CN(C)C(=O)CN1C(=O)N2CCCN=C2c2ccc(Cl)cc21 [CBK284392] | 75.642
COc1cccc(Oc2nccnc2-c2cnn(C)c2)c1 [CBK107071] | 56.773
O=C(Nc1ccc(F)cc1)Nc1cccnc1Cl [CBK058509] | 75.5862
O=C(O)CC(C(=O)Nc1ccc(Cl)cc1)C1CCCO1 (stereo not drawn) [CBK264583] | 117.011
CCC(=O)N[C@H]1CC[C@@]2(Cc3ccc(OC)cc3)CCN(C)[C@H]2C1 [CBK024126] | 95.1452
